# Values joined by “and” are separate entries in the source; they are usually repeats but may differ in a detail not shown here. Identical values can stand only once. The campaign covered roughly 420,000 compounds. About 64,000 (15%) were called active. The shares of active, inactive and inconclusive entries below differ from those in the screen. Calls come from the whole dose curve; as a rule, active = well fitted inhibition curve with a large enough effect; inconclusive = small, poorly fitted or top-dose-only effect; inactive = flat fitted curve, though single readings scatter. Potencies of inconclusive entries are doubtful fits and often do not repeat.
# Assay: qHTS for Inhibitors of human tyrosyl-DNA phosphodiesterase 1 (TDP1): qHTS in cells in absence of CPT; note: nearly all actives have a fitted effect of over 55% in size
# Settings: DT40 Tdp1-/- hTDP1 cells, no CPT, ATP luminescence, 48 h; activity change, negative = growth inhibition: at 46.2 µM (top of the series) unless noted
# Summary of the method: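 DT40 Tdp1-/-;hTDP1 cells, no CPT (DMSO vehicle only), 400 cells/well; compounds pin-transferred; ≥48 hr, 37 °C; CellTiter-Glo 30 min RT dark, luminescence read.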
# % is set by controls: 0 for no effect and ±100 for the full control effect; potency is the fitted concentration of half-maximal effect; tags give direction and shape of the fitted curve.
SMILES,Potency,"activity change, negative = growth inhibition"
COc1ccc(CN(C)C(=O)c2[nH]c(C)c(C(C)=O)c2C)cc1F,active: 14.6 µM,
C=CCOc1ccc(C2NC(=O)c3ccccc3O2)cc1OC (centres undefined),inactive,
COC(=O)[C@@]1(Sc2ccc(C)cc2)CC(=O)N(c2ccc3c(ccn3C)c2)[C@@H]1c1ccccc1,"inconclusive: 25.9 µM [inhibitor, single point]",
O=C(N/N=C/c1ccc(N2CCOCC2)s1)c1ccc(NS(=O)(=O)c2cccs2)cc1,"inconclusive: 18.4 µM [inhibitor, single point]",
C/C(=N/NC(=O)CNC(=O)c1ccccc1F)c1ccc2c(c1)CCCC2,"inconclusive: 18.4 µM [inhibitor, single point]",
O=C(Nc1ccc(S(=O)(=O)N2CCCC2)cc1)N1c2ccccc2Sc2ccccc21,"inconclusive: 16.4 µM [inhibitor, partial curve]",
CC(=O)Nc1ccc(-c2nnc(SCc3ccccc3)n2C)cc1,inactive,
CCC(C(=O)OCC(=O)Nc1ccc2[nH]c(=O)[nH]c2c1)c1ccccc1 (centres undefined),inactive,
COc1cc(Cc2cc(OC)c(O)c(OC)c2)cc(OC)c1O,active: 20.6 µM,
O=C(COC(=O)c1cnc(Cl)c(Cl)c1)Nc1ccc(S(=O)(=O)N2CCCC2)cc1,inactive,
Cc1cc(C)c2nc(Cl)c(Cl)nc2c1,inactive,
COc1ccc(OC)c(-c2nc(CN3CCCCC3c3cccnc3)c(C)o2)c1 (centres undefined),"inconclusive: 20.6 µM [inhibitor, single point]",
O=C(c1ccco1)N1CCC2(CCCN(c3cccc(-c4ccccc4)c3)C2)CC1,"inconclusive: 18.4 µM [inhibitor, single point]",
CCc1cccc(C)c1NC(=O)C(CC)Sc1nc2ccncc2[nH]1 (centres undefined),"inconclusive: 18.4 µM [inhibitor, single point]",
Cc1nc2ccccn2c1C(=O)NCc1cccnc1,inactive,
CCCCc1ccc(N=N/C(C(=O)Nc2ccc(NC(C)=O)cc2OC)=C(/C)O)cc1,"inconclusive: 29.1 µM [inhibitor, single point]",
COc1ccc(N(CC(=O)NCc2ccccc2)C(=O)CCC(=O)Nc2cc(C)ccn2)c(OC)c1,"inconclusive: 13 µM [inhibitor, partial curve]",
CCn1cc(Cl)c(C(=O)N2N=C3/C(=C/c4cccs4)CCCC3C2c2cccs2)n1 (centres undefined),"inconclusive: 29.1 µM [inhibitor, single point]",
CCOc1ccc(CCNC(=O)COC(=O)/C=C/c2ccc(OC(F)F)c(OC)c2)cc1OCC,"inconclusive: 29.1 µM [inhibitor, single point]",
CCOC(=O)C1(Cc2ccccc2C)CCCN(C(=O)c2ccc(CSC)o2)C1 (centres undefined),"inconclusive: 29.1 µM [inhibitor, single point]",
COC(=O)c1oc2ccc(Br)cc2c1NC(=O)CCCN1C(=O)c2ccccc2C1=O,"inconclusive: 20.6 µM [inhibitor, single point]",
COc1ccc(NC(=O)CS(=O)c2cccc(C(F)(F)F)c2)cc1 (centres undefined),inactive,
CN(c1ccccc1)S(=O)(=O)c1cccc(NC(=O)COc2ccccc2)c1,"inconclusive: 18.4 µM [inhibitor, single point]",

SMILES,Potency,"activity change, negative = growth inhibition"
COc1ccc(CCNC(=O)CC(Cc2ccc(C)cc2)C(=O)O)cc1OC (centres undefined),inactive,
CCN(CC)CCn1c2c(c(SCC(=O)Nc3ccc(C(C)C)cc3)nc1=O)CCC2,"inconclusive: 29.1 µM [inhibitor, single point]",
COc1ccc(/C=C2\N=C3CCCCCN3C2=O)cc1OC,inactive,
CCCN1CCN(C(=O)C(NC(=O)c2ccco2)C(C)C)CC1 (centres undefined),inactive,
Cc1ccc(CNC(=O)C(=O)NCC2OCCN2S(=O)(=O)c2ccc(Br)cc2)cc1 (centres undefined),"inconclusive: 18.4 µM [inhibitor, single point]",
CCC(C)N1CCC2(CC1)N=c1c(c3c4c5c(C)c(O)c3c(O)c1=NC(=O)C(C)=CC=C[C@H](C)[C@H](O)[C@@H](C)[C@@H](O)[C@@H](C)[C@H](OC(C)=O)[C@H](C)[C@@H](OC)C=CO[C@@](C)(O5)C4=O)N2 (some centres undefined),active: 18.4 µM,
CSc1ncc(C(=O)NCc2ccccc2Cl)c(C(F)(F)F)n1,inactive,
O=C(CC1(CC2=NS(=O)(=O)c3ccccc3N2)CCCC1)NCCc1ccccc1,"inconclusive: 29.1 µM [inhibitor, single point]",
O=C1CC(c2ccco2)CC(O)=C1C=Nc1ccc(Br)cc1 (centres undefined),inactive,
COC(=O)Cn1c(-c2ccc(OC)cc2)c(-c2ccc(OC)cc2)nnc1=O,inactive,
Cc1ccc2nc3n(c(=O)c2c1)CCCCC3,inactive,
Cc1ccc(C)c(C2C(C#N)=C(N)Oc3cc(C)oc(=O)c32)c1 (centres undefined),inactive,
CCCCc1nn2c(=O)cc(COC(=O)c3ccc(NC(=O)c4cccc(OC)c4)cc3)nc2s1,inactive,
Cc1[nH]c2ccccc2c1CN1CCC(CO)(Cc2ccccc2)CC1,"inconclusive: 18.4 µM [inhibitor, partial curve, poor fit]",
Cc1ccc(NC(=O)CN(C)C(=O)Cn2c(=O)oc3ccccc32)cc1,"inconclusive: 25.9 µM [inhibitor, single point]",
O=C(NCc1ccc(/C=N\NC(=O)C(=O)Nc2ccccc2Br)o1)C(=O)Nc1ccccc1,,inconclusive: -35% [inhibitor]
CCOC(=O)CSc1nc2cc3c(cc2c(=O)n1CCCCCC(=O)NCc1ccc2c(c1)OCO2)OCO3,inactive,
COc1cc(/C=N/Nc2ncc(C(F)(F)F)cc2Cl)cc(OC)c1OC,"inconclusive: 20.6 µM [inhibitor, single point]",
Cc1ccc2c(CC(=O)Nc3ccc(S(=O)(=O)Nc4nc(C)cc(C)n4)cc3)coc2c1,"inconclusive: 29.1 µM [inhibitor, single point]",
COc1cc(C2Nc3ccccc3-c3nnc(SCc4ccc(Cl)cc4)nc3O2)ccc1OCC(=O)O (centres undefined),"inconclusive: 29.1 µM [inhibitor, single point]",
CN(C(=O)c1cccc(NC(=O)Cc2cccc(NC(=O)C3CCN(C(=O)c4ccccc4)CC3)c2)c1)C1CCCC1,"inconclusive: 18.4 µM [inhibitor, single point]",
Cc1cc(C)cc(N2CC(C)Cn3c2nc2c3c(=O)[nH]c(=O)n2C)c1 (centres undefined),,inconclusive: -33.5% [inhibitor]
Cc1ccc(-c2cc(C(=O)Nc3c(C)n(C)n(-c4ccccc4)c3=O)c3ccccc3n2)cc1,"inconclusive: 18.4 µM [inhibitor, single point]",

SMILES,Potency,"activity change, negative = growth inhibition"
O=C(O)CCCNS(=O)(=O)c1ccccc1,inactive,
CC1=C(C(=O)N2CCOCC2)CC(CC(=O)NCC2CCCCC2)C(=O)N1Cc1ccc(C(C)(C)C)cc1 (centres undefined),"inconclusive: 29.1 µM [inhibitor, partial curve, poor fit]",
COc1ccccc1N(CC(O)CN(c1ccccc1)S(C)(=O)=O)S(=O)(=O)c1ccccc1 (centres undefined),"inconclusive: 29.1 µM [inhibitor, single point]",
CC(=O)c1cc2c(cc1NC(=O)CSc1nc3ccccc3o1)OCO2,inactive,
CC(=O)c1cccc(OCc2cc(C(=O)NC3CCN(Cc4ccccc4)CC3)no2)c1,"inconclusive: 23.1 µM [inhibitor, partial curve]",
Cc1cc(C)c2c(N)c(C(=O)Nc3ccccc3Cl)sc2n1,"inconclusive: 11.6 µM [inhibitor, partial curve]",
Cc1ccc(NC(=O)Cn2sc3ccccc3c2=O)cc1,active: 4.61 µM,
Cc1cc(C)c(Nc2n[nH]c(=S)s2)cc1C,"inconclusive: 29.1 µM [inhibitor, single point]",
Cc1cccc(NCc2nc(-c3ccccc3)no2)c1,"inconclusive: 23.1 µM [inhibitor, partial curve]",
NC(c1cccc(F)c1)c1nc(-c2ccc(Cl)cc2)cs1 (centres undefined),"inconclusive: 18.4 µM [inhibitor, single point]",
CCOc1cc(/C=N/O)ccc1OCc1ccc(F)cc1,"inconclusive: 29.1 µM [inhibitor, partial curve, poor fit]",
COc1ccc(C2N(Cc3ccccc3)CC(=O)N2/N=C(\C)c2ccccc2)cc1 (centres undefined),inactive,
Cn1c(=O)cc(OCC(=O)N2CCN(c3ccccc3F)CC2)c2ccccc21,"inconclusive: 16.4 µM [inhibitor, partial curve, poor fit] and inconclusive: 20.6 µM [inhibitor, single point]",
Cc1ccc2oc(C(=O)N3CCN(Cc4ncccc4C)CC3)c(C)c2c1,"inconclusive: 20.6 µM [inhibitor, single point]",
Cc1c(N)cc2c(c1N)C(C)(C)CC2(C)C,inactive,
O=S(=O)(c1cccc2nsnc12)N1CCN(Cc2ccccc2)CC1,inactive,
CN1C2C=C(N(CCc3c[nH]c4ccccc34)C(=O)c3ccc(Cl)cc3)CC1CC2 (centres undefined),"inconclusive: 25.9 µM [inhibitor, single point]",
O=C(NCCN1CCOCC1)C1CCC(CNS(=O)(=O)c2ccc(Cl)cc2)CC1 (centres undefined),"inconclusive: 16.4 µM [inhibitor, partial curve, poor fit]",
COc1cc(C(=O)O)cc(NC(=O)c2cccs2)c1OC,inactive,
COc1cc(C(O)c2nc(/C=C/c3ccccc3)cs2)ccc1F (centres undefined),"inconclusive: 23.1 µM [inhibitor, single point]",
N#Cc1ccc(N2CCc3ccccc3C2)c([N+](=O)[O-])c1,active: 23.1 µM,
CCN1CCc2c(sc(NC(=O)CSc3ccccc3)c2-c2nc3ccccc3s2)C1,"inconclusive: 20.6 µM [inhibitor, single point]",
Cc1cnc(NC(=O)Cc2ccccc2Cl)s1,active: 3.26 µM,

# From PubChem BioAssay AID686978 (National Center for Advancing Translational Sciences (NCATS), 2013)
